Reference: the supplement of paper PMC7826260
The other results are listed elsewhere or left out. Viral Rep nickase domains cut single-stranded DNA in vitro (3 µM enzyme, 1 h, 37 °C); shown is the middle of each 90-letter strand. A value is the log2 ratio of uncut reads to the pool without enzyme; more negative means more cut, near 0 not cut, and no call is made. Counts are relative to all reads; where an enzyme cuts many sequences, the uncut ones exceed 0.

Legend:
Assay in all cases: uncleaved DNA left, log2 of reads against the no-enzyme library (log2 ratio); higher = less cleavage (more negative = more Rep cleavage of the k-mer); sequences stand for … in CTCGTCCG…ACCGGAGA
[1] = test system: T1, Rep nickase domain of Muscovy duck circovirus
T1 sequence (residues 1-111 of Rep, tag left off): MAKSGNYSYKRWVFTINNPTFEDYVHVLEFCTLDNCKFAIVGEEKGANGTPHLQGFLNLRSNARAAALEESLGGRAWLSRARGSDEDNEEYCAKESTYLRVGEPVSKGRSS
Description: (§1)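 A pool of 90-nt single-stranded DNAs with seven random bases just before the constant AC of the nick site (name = the seven bases) was cut by 3 µM recombinant His6-SUMO-tagged Rep nickase domain (300 nM DNA, 50 mM HEPES pH 8.0, 50 mM NaCl, 1 mM MnCl2, 1 h, 37 °C, three replicates). Uncut DNA was amplified and sequenced.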

[2] = test system: T2, Rep nickase domain of banana bunchy top virus
T2 sequence (residues 1-94 of Rep, tag left off): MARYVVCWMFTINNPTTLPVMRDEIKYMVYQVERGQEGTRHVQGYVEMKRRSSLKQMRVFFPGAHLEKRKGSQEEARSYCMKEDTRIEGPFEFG
Description: as §1

[3] = test system: T3, Rep nickase domain of cabbage leaf curl virus
T3 sequence (residues 1-116 of Rep, tag left off): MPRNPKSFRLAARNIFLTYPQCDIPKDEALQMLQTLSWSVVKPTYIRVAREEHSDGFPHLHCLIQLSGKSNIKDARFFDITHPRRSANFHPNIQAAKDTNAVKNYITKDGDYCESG
Description: as §1

[4] = test system: T4, Rep nickase domain of chickpea chlorotic dwarf virus
T4 sequence (residues 1-124 of Rep, tag left off): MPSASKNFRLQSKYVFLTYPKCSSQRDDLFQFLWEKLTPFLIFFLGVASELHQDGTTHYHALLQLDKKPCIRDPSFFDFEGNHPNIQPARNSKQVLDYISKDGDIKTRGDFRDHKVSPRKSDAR
Description: as §1

[5] = test system: T5, Rep nickase domain of faba bean necrotic yellows virus
T5 sequence (residues 1-98 of Rep, tag left off): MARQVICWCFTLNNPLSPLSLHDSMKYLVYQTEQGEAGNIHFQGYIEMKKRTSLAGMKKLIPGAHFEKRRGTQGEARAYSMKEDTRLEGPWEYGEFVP
Description: as §1

[6] = test system: T6, Rep nickase domain of maize striate mosaic virus
T6 sequence (residues 1-117 of Rep, tag left off): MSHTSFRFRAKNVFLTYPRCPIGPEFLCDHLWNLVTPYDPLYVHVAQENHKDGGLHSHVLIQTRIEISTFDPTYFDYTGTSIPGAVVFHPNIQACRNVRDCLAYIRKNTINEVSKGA
Description: as §1

[7] = test system: T7, Rep nickase domain of porcine circovirus 2
T7 sequence (residues 2-116 of Rep, tag left off): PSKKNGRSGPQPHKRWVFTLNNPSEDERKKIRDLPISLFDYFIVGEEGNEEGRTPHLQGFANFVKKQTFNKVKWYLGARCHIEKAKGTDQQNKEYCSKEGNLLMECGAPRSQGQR
Description: as §1

[8] = test system: T8, Rep nickase domain of tomato golden mosaic virus
T8 sequence (residues 1-124 of Rep, tag left off): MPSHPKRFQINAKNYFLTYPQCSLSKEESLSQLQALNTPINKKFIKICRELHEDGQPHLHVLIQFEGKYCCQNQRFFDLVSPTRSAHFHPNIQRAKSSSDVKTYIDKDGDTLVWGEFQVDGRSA
Description: as §1

[9] = test system: T9, Rep nickase domain of tomato yellow leaf curl virus
T9 sequence (residues 1-136 of Rep, tag left off): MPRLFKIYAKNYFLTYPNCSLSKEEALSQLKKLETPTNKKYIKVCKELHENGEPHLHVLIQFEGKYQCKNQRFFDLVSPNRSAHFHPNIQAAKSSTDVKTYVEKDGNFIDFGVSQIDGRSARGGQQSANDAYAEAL
Description: as §1

[10] = test system: T10, Rep nickase domain of wheat dwarf virus
T10 sequence (residues 1-137 of Rep, tag left off): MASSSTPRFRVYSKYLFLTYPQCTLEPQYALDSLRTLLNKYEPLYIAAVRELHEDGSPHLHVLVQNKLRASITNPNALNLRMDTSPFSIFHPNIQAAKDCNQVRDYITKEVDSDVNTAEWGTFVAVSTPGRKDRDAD
Description: as §1

Sequence | uncleaved DNA left (log2) [1] | uncleaved DNA left (log2) [2] | uncleaved DNA left (log2) [3] | uncleaved DNA left (log2) [4] | uncleaved DNA left (log2) [5] | uncleaved DNA left (log2) [6] | uncleaved DNA left (log2) [7] | uncleaved DNA left (log2) [8] | uncleaved DNA left (log2) [9] | uncleaved DNA left (log2) [10]
CGGGTCG | 0.107 | 0.0615 | -0.359 | 0.185 | 0.114 | -0.451 | 0.248 | 0.0476 | 0.0431 | -0.0482
TCCAGCA | 0.028 | 0.05 | -0.195 | -0.824 | -0.0108 | -0.953 | -0.187 | -0.067 | 0.0427 | -0.0621
GGTAGAA | 0.0746 | 0.0252 | 0.592 | 1.33 | -0.00323 | 1.88 | 0.14 | -0.00457 | 0.0288 | 0.158
GCGGATA | -0.0435 | 0.044 | 0.656 | 1.6 | 0.109 | 1.99 | 0.15 | 0.125 | 0.0428 | 0.106
GAAGGTG | -0.0209 | -0.0522 | 0.116 | 0.491 | -0.0163 | 0.465 | 0.0417 | 0.0169 | -0.0899 | 0.0122
GTGTAGC | 0.148 | 0.0684 | 0.406 | 0.936 | 0.085 | 1.66 | 0.151 | 0.238 | 0.138 | 0.093
GATTAGA | -0.00368 | 0.0756 | 0.162 | 0.237 | 0.0644 | -0.183 | -0.0635 | -0.0372 | 0.083 | 0.0472
TCGTAAC | 0.0822 | -0.0531 | -0.102 | -1.31 | -0.0311 | -0.356 | -0.121 | -0.0394 | -0.173 | -0.103
TAATCTA | -0.937 | 0.0397 | -2.87 | -3.05 | -0.00992 | -2.22 | -1.74 | -3.04 | -0.224 | -2.93
GGGGGGA | 0.0334 | -0.00997 | 0.893 | 1.75 | 0.0338 | 2.15 | 0.238 | 0.0678 | -0.000559 | 0.209
TGTTTGA | 0.113 | 0.074 | 0.127 | 0.268 | 0.0574 | -0.222 | -0.0131 | 0.0495 | 0.0938 | 0.131
TGCATCA | -0.0246 | 0.179 | 0.282 | -0.0496 | 0.0548 | 0.134 | -0.1 | 0.0852 | 0.162 | 0.251
AGAAAGT | 0.0479 | -0.0147 | 0.0671 | -0.177 | 0.075 | -0.725 | 0.0194 | 0.0454 | 0.0977 | 0.039
AGCCGTA | 0.0193 | -0.0133 | -0.0899 | -0.193 | -0.0655 | 0.134 | -0.304 | -0.0471 | -0.212 | -0.118
GTTCAAG | 0.0172 | 0.0467 | -0.0934 | -0.129 | -0.062 | -0.676 | 0.0993 | 0.0336 | 0.087 | 0.057
